# Data taken from the supplement of paper PMC12067230.
# The data scatter; read single values as rough.
# Test: amyloid nucleation score relative to library mode (yeast Sup35 reporter selection) (log enrichment difference); higher = more amyloid nucleation; sequences are the first 22 residues of the Bri2 peptide extended by up to 12 random residues
# Details: random library (experiment): 1;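 active = nucleation score significantly above 0 at FDR 0.05; inactive = not significantly above 0 or absent from output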
# 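Also: [psi-pin-] Saccharomyces cerevisiae expressing SupN fusions, induced by 100 µM Cu2SO4, selected 7 d at 30 °C without adenine and uracil, scored by deep sequencing of output versus input.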
row,Sequence,amyloid nucleation score
1,EASNCFAIRHFENKFAVETLICRTACSWRWECDS,3.08
2,EASNCFAIRHFENKFAVETLICGVFGLNTYSLGS,6.94
3,EASNCFAIRHFENKFAVETLICWYIASTSVATDR,inactive
4,EASNCFAIRHFENKFAVETLICDGRGMLAEGTRD,inactive
5,EASNCFAIRHFENKFAVETLICFQSDAEKCGG,inactive
6,EASNCFAIRHFENKFAVETLICQQRGLRSVHIRM,inactive
7,EASNCFAIRHFENKFAVETLICIKVLREYTGGKS,inactive
8,EASNCFAIRHFENKFAVETLICRGRGSAVRCAGS,inactive
9,EASNCFAIRHFENKFAVETLICYHLYWS,inactive
10,EASNCFAIRHFENKFAVETLICYNPRSLWGNWCV,6.02
11,EASNCFAIRHFENKFAVETLICYNTRSRAGLTLL,3.13
12,EASNCFAIRHFENKFAVETLICPKML,inactive
13,EASNCFAIRHFENKFAVETLICWFRTEECFSACP,inactive
14,EASNCFAIRHFENKFAVETLICAFELFM,5.16
15,EASNCFAIRHFENKFAVETLICRVRW,inactive
16,EASNCFAIRHFENKFAVETLICLYSRLYNVTIYW,inactive
17,EASNCFAIRHFENKFAVETLICNNLRVVVNGMWG,3.43
18,EASNCFAIRHFENKFAVETLICTVVGEPCAGEEA,1.28
19,EASNCFAIRHFENKFAVETLICANWFHCSNMSSA,7.19
20,EASNCFAIRHFENKFAVETLICGCYVGRSVSSNC,inactive
21,EASNCFAIRHFENKFAVETLICDLTQDERFPCCC,inactive
22,EASNCFAIRHFENKFAVETLICMSQPVETSRLRH,inactive
23,EASNCFAIRHFENKFAVETLICWYL,3.7
24,EASNCFAIRHFENKFAVETLICNM,3.05
25,EASNCFAIRHFENKFAVETLICWIGAETRTGELC,-0.352
26,EASNCFAIRHFENKFAVETLICVPKHQFAWGSYA,inactive

row,Sequence,amyloid nucleation score
1,EASNCFAIRHFENKFAVETLICQRMMSRVVALRD,inactive
2,EASNCFAIRHFENKFAVETLICVNARCVQWEALR,inactive
3,EASNCFAIRHFENKFAVETLICCVRR,7.83
4,EASNCFAIRHFENKFAVETLICPMCTAYWILM,4.31
5,EASNCFAIRHFENKFAVETLICVVLRTWD,inactive
6,EASNCFAIRHFENKFAVETLICRARRCNSFCGVL,inactive
7,EASNCFAIRHFENKFAVETLICCHMASVPKRVCV,inactive
8,EASNCFAIRHFENKFAVETLICGDLTCVCLRAKT,8.27
9,EASNCFAIRHFENKFAVETLICARWCT,3.01
10,EASNCFAIRHFENKFAVETLICREPSVRQQRSEG,inactive
11,EASNCFAIRHFENKFAVETLICIFVRWSERGGSA,4.01
12,EASNCFAIRHFENKFAVETLICAGWSVGTMRPG,-0.203
13,EASNCFAIRHFENKFAVETLICPFNSSYNSWGCH,7.73
14,EASNCFAIRHFENKFAVETLICLFKDSRVLCCHP,0.582
15,EASNCFAIRHFENKFAVETLICARGTKGCYHSVV,inactive
16,EASNCFAIRHFENKFAVETLICYREAGVVLIDCW,inactive
17,EASNCFAIRHFENKFAVETLICNNAFTLIGVGVR,inactive
18,EASNCFAIRHFENKFAVETLICMRVRWPRWNGAG,1.52
19,EASNCFAIRHFENKFAVETLICHLCEPIQRVCA,inactive
20,EASNCFAIRHFENKFAVETLICCWGWQKRSLGYE,8
21,EASNCFAIRHFENKFAVETLICQYGC,5.06
22,EASNCFAIRHFENKFAVETLICYILTRRKGSGCV,-0.0664
23,EASNCFAIRHFENKFAVETLICRGTGRERVICGL,inactive
24,EASNCFAIRHFENKFAVETLICVWFK,1.29
25,EASNCFAIRHFENKFAVETLICVENWRGGEVGVW,inactive

# Same assay, conditions: random library (experiment): 2
row,Sequence,amyloid nucleation score
1,EASNCFAIRHFENKFAVETLICCMSF,8.08
2,EASNCFAIRHFENKFAVETLICFQ,5.2
3,EASNCFAIRHFENKFAVETLICVSTVLRLLYDRV,inactive
4,EASNCFAIRHFENKFAVETLICCLRMSLVVCQSR,inactive
5,EASNCFAIRHFENKFAVETLICCSLQYLLVFCRT,1.73
6,EASNCFAIRHFENKFAVETLICQNTCKER,inactive
7,EASNCFAIRHFENKFAVETLICMAVPVCPVCLGR,4.64
8,EASNCFAIRHFENKFAVETLICMNNHYWLSMWRG,inactive
9,EASNCFAIRHFENKFAVETLICHTDSSHLLSWEC,2.7
10,EASNCFAIRHFENKFAVETLICYCVSMRVSLQWN,inactive
11,EASNCFAIRHFENKFAVETLICLCVVSSYPYGRF,inactive
12,EASNCFAIRHFENKFAVETLICVRYCCKIIKTRC,inactive
13,EASNCFAIRHFENKFAVETLICELLGRKALLGTG,inactive
14,EASNCFAIRHFENKFAVETLICEALQECFEYGP,inactive
15,EASNCFAIRHFENKFAVETLICFIFNTRVTLLFW,inactive
16,EASNCFAIRHFENKFAVETLICLTRIVSVSDLST,inactive
17,EASNCFAIRHFENKFAVETLICVVLMFRSRRI,1.08

row,Sequence,amyloid nucleation score
1,EASNCFAIRHFENKFAVETLICLSYFGDGYVRHF,5.44
2,EASNCFAIRHFENKFAVETLICHEGT,inactive
3,EASNCFAIRHFENKFAVETLICYGFKSLSKFCFF,inactive
4,EASNCFAIRHFENKFAVETLICRRILI,inactive
5,EASNCFAIRHFENKFAVETLICHFV,5.71
6,EASNCFAIRHFENKFAVETLICLFGVLGWICYGW,4.45
7,EASNCFAIRHFENKFAVETLICTLWTGACRSVGG,3.71
8,EASNCFAIRHFENKFAVETLICRFWIYWSWTCLS,inactive
9,EASNCFAIRHFENKFAVETLICGNRIVNSSMWMK,inactive
10,EASNCFAIRHFENKFAVETLICESATSKWIVIYV,-0.113
11,EASNCFAIRHFENKFAVETLICTCYCIKHSVVAG,-0.293
12,EASNCFAIRHFENKFAVETLICVFMFGA,8.44
13,EASNCFAIRHFENKFAVETLICCLLLLYSRRVLD,inactive
14,EASNCFAIRHFENKFAVETLICCKDRSRCSYREY,4.21
15,EASNCFAIRHFENKFAVETLICCRGHTCTSTFGA,4.83
16,EASNCFAIRHFENKFAVETLICVNSMLLMYSGMS,inactive

# Same assay, conditions: random library (experiment): 3
row,Sequence,amyloid nucleation score
1,EASNCFAIRHFENKFAVETLICHSDLPSTRNTLL,inactive
2,EASNCFAIRHFENKFAVETLICGVRLRRL,inactive
3,EASNCFAIRHFENKFAVETLICVGARC,1.4
4,EASNCFAIRHFENKFAVETLICWSHFAGVCMAWM,inactive
5,EASNCFAIRHFENKFAVETLICFCV,7.18
6,EASNCFAIRHFENKFAVETLICVSARFSWFSVWN,inactive
7,EASNCFAIRHFENKFAVETLICCILNHQLVRATW,inactive
8,EASNCFAIRHFENKFAVETLICNGDGNKQMRANA,inactive
9,EASNCFAIRHFENKFAVETLICHRGMVIRSYVER,2.33
10,EASNCFAIRHFENKFAVETLICFRKILDLYPLVS,inactive
11,EASNCFAIRHFENKFAVETLICGRKAAMLAGLSR,1.47
12,EASNCFAIRHFENKFAVETLICEGLVTSWETMWA,inactive
13,EASNCFAIRHFENKFAVETLICWIHVPLAFLLGS,inactive
14,EASNCFAIRHFENKFAVETLICCDMA,5.67
15,EASNCFAIRHFENKFAVETLICQNGSG,inactive
16,EASNCFAIRHFENKFAVETLICHNVSPSALGRRA,4.7
17,EASNCFAIRHFENKFAVETLICMCDFWWWYLTLR,0.372
18,EASNCFAIRHFENKFAVETLICARAEWRSSREKE,3.07

row,Sequence,amyloid nucleation score
1,EASNCFAIRHFENKFAVETLICVHPPASQRQWGS,6.15
2,EASNCFAIRHFENKFAVETLICYFDWKVFSVVRG,inactive
3,EASNCFAIRHFENKFAVETLICLSSICYDERAVG,1.92
4,EASNCFAIRHFENKFAVETLICGVHVTSATGSDG,5.82
5,EASNCFAIRHFENKFAVETLICDLTVSFLLWELG,inactive
6,EASNCFAIRHFENKFAVETLICMELTLDLFLDRQ,1.19
7,EASNCFAIRHFENKFAVETLICVLIGEW,inactive
8,EASNCFAIRHFENKFAVETLICVWIGSVLCRRVT,inactive
9,EASNCFAIRHFENKFAVETLICWIRASVWRDGGT,inactive
10,EASNCFAIRHFENKFAVETLICPDSLGPCFGNDG,inactive
11,EASNCFAIRHFENKFAVETLICTYYQTMGPYMLR,inactive
12,EASNCFAIRHFENKFAVETLICYKL,3.77
13,EASNCFAIRHFENKFAVETLICMTERRESSIRTV,inactive
14,EASNCFAIRHFENKFAVETLICTKSGGMFETVI,inactive
15,EASNCFAIRHFENKFAVETLICGVMFVRISWTVE,inactive
16,EASNCFAIRHFENKFAVETLICFRVYRLVSCALW,inactive
17,EASNCFAIRHFENKFAVETLICGIRHWQPCASRE,5.33
18,EASNCFAIRHFENKFAVETLICRPEER,inactive
